Data as given in PubChem BioAssay AID2675 (National Center for Advancing Translational Sciences (NCATS), 2010).
The campaign covered roughly 280,000 compounds. About 100 (0.036%) were called active. Inconclusive results, whose numbers are uncertain, are shown with a selection of clear calls. Calls come from the whole dose curve; as a rule, active = well fitted inhibition curve with a large enough effect in the signal ratio, with a control signal flat (not every such curve was filed as active); inconclusive = small, poorly fitted or top-dose-only effect, or effect the other way, or a change in a side signal; inactive = no such curve, though single readings can be large or run the other way; the % refers to the signal ratio. Potencies of inconclusive entries are doubtful fits and often do not repeat. A note “side channel” means that the fit belongs to a control or component signal, not to the main read-out.

Biological target: Muscleblind-like protein 1 (Homo sapiens) (UniProt Q9NR56)
Assay: qHTS Assay for Inhibitors of MBNL1-poly(CUG) RNA binding
Details: TR-FRET MBNL1-His/biotin-(CUG)12 binding, 665/545 ratio; series mostly up to 57.5 µM
Procedure, shortened: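 Compounds (final 92 nM to 58 uM) are added to His-tagged MBNL1 and biotin-(CUG)12, then terbium anti-His antibody and streptavidin-XL665 (5 nM final). After 60 min at room temperature, the 665/545 nm ratio is read.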
Potency is the fitted concentration of half-maximal effect; tags give direction and shape of the fitted curve or compound fluorescence and quenching.

Sequence of UniProt Q9NR56 (Q9NR56 whole entry, looked up): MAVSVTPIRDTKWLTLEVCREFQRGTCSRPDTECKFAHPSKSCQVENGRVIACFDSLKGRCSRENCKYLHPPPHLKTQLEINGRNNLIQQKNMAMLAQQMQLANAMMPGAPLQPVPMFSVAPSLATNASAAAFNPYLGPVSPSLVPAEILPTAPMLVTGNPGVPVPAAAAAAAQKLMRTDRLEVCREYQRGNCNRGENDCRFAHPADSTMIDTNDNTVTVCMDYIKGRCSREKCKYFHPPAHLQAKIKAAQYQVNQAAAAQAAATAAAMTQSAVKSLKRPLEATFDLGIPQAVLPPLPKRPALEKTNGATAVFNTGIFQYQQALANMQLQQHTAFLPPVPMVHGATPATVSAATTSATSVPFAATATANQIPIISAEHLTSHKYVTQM

SMILES | Potency
O=C(c1ccc([N+](=O)[O-])cc1)N1CCSC1c1ccccc1 (stereo unspecified) | inconclusive: 15.8 µM [quencher, side channel, partial curve]
O=[N+]([O-])c1ccc(S(=O)(=O)Nc2nnc(C(F)(F)F)s2)cc1 | inconclusive: 10 µM [quencher, side channel, partial curve]
O=[N+]([O-])c1ccc2c(c1)N([O-])C1(CCCCC1)[N+]2=O | inconclusive: 10 µM [quencher, side channel, partial curve]
O=C(Nc1cccnc1)c1ccc2c(c1)C(=O)N(Cc1cccnc1)C2=O | inconclusive: 14.1 µM [quencher, partial curve]
Cc1sc(NC(=O)c2ccco2)c(CN2CCC(C)CC2)c1C | inactive
CCc1cc(C=C(Cl)Cl)oc(=O)c1C | inconclusive: 28.2 µM [quencher, side channel, partial curve]
CC1CCCN(S(=O)(=O)c2cccc3nonc23)C1 (stereo unspecified) | inconclusive: 14.1 µM [quencher, side channel, partial curve]
CCC(C)Nc1nc(N)c([N+](=O)[O-])c(NCc2ccccc2)n1 (stereo unspecified) | inactive
CC(=O)C1=C(O)C(=O)N(Cc2cccnc2)C1c1ccccc1 (stereo unspecified) | inactive
Clc1ccc(-c2nn3c(C4COc5ccccc5O4)nnc3s2)cc1 (stereo unspecified) | inactive
CCN1CCN(c2ccc([N+](=O)[O-])c(Sc3nc4ccccc4[nH]3)c2)CC1 | inconclusive: 0.631 µM [quencher, side channel, full curve, poor fit]
COc1ccc(Cn2nnnc2CN(Cc2cc3cc(C)ccc3[nH]c2=O)C2CCCC2)cc1 | inconclusive: 20 µM [quencher, side channel, partial curve]
C=CCSc1nnc2c(n1)OC(c1cccnc1)Nc1ccccc1-2 (stereo unspecified) | inconclusive: 12.6 µM [quencher, side channel, partial curve]
COc1ccccc1-c1ccc(/C=C2/C=C(C)OC2=O)o1 | inactive
Nc1nnc(-c2cc3c(ccc4ccccc43)oc2=O)s1 | inconclusive: 1.78 µM [quencher, side channel, full curve]
O=C1c2oc3ccc(Cl)cc3c(=O)c2C(c2ccco2)N1CCN1CCOCC1 (stereo unspecified) | inconclusive: 22.4 µM [activator, partial curve]
CNCCOc1ccccc1OC(C)C | inactive
CCOc1ccc2c(c1)C(c1ccc(C)cc1)=NNC(c1ccc(OC)cc1)=N2 | inactive
O=C1CN(c2ccccc2)C(=S)N1C(=O)c1ccc(Br)cc1 | inactive
CCc1ccc(/C=C/c2c[nH]c3ccccc23)[n+](CC)c1 | inconclusive: 14.1 µM [quencher, side channel, partial curve]
CC1=NOC(=O)/C1=C\c1ccc(-c2ccc(Br)cc2C(=O)O)o1 | inconclusive: 12.6 µM [quencher, side channel, partial curve]

SMILES | Potency
CC(C)n1c(O)c(N=NC(=O)CNC(=O)c2cccnc2)c2ccccc21 | inconclusive: 12.6 µM [quencher, side channel, partial curve]
CC(C)c1ccc(/C=C2\SC(N3CCOCC3)=NC2=O)cc1 | inconclusive: 39.8 µM [quencher, side channel, single point]
CCC(=O)NC(c1ccc(OC)cc1)c1cc(Cl)c2cccnc2c1O (stereo unspecified) | inactive
COc1ccc(NC(=O)c2ccc(-c3ccc([N+](=O)[O-])cc3)o2)cc1 | inconclusive: 17.8 µM [quencher, side channel, partial curve]
NC(=O)c1nsc(C(=O)N(Cc2ccco2)C(C(=O)NCc2ccccc2)c2ccc(O)cc2)c1N (stereo unspecified) | inconclusive: 25.1 µM [quencher, side channel, partial curve]
Cc1cc(C)c2nc(C)cc(N/N=C/c3ccc(O)cc3)c2c1 | inconclusive: 28.2 µM [quencher, side channel, partial curve]
O=C(c1ccc2ccccc2c1)C1CCCN(C(=O)CN2C(=O)CSC2=O)C1 (stereo unspecified) | inconclusive: 12.6 µM [quencher, side channel, partial curve]
CCc1cc2ccc(C)cc2nc1SCC(=O)N1CCN(C(=O)c2ccco2)CC1 | inactive
COC(=O)c1cc(C(=O)c2c(C)cc3ccccn23)cc([N+](=O)[O-])c1 | inconclusive: 25.1 µM [quencher, side channel, partial curve]
COc1ccc(NC(=O)c2cccc(N3C(=O)c4cccc([N+](=O)[O-])c4C3=O)c2)cc1 | inconclusive: 31.6 µM [quencher, side channel, partial curve]
CCN1C(=O)/C(=C2/Sc3ccccc3N2CC)SC1=S | inactive
COc1ccc(-c2cc(=O)oc3cc(OC(C)C(=O)NCCCn4ccnc4)ccc23)cc1 (stereo unspecified) | inconclusive: 15.8 µM [quencher, side channel, partial curve]
Cc1ccc(-n2nnc3c(=O)n(Cc4cc(C)ccc4C)cnc32)cc1 | inactive
CCC(=O)N1C(=O)CCN(C(C)=O)c2ccccc21 | inconclusive: 7.08 µM [quencher, side channel, single point]
O=C(C1CCCN(S(=O)(=O)c2cccc3nonc23)C1)N1CCC(Cc2ccccc2)CC1 (stereo unspecified) | inconclusive: 39.8 µM [quencher, side channel, partial curve]
O=C(c1nc2nc(-c3cccs3)cc(C(F)(F)F)n2n1)N1CCN(Cc2ccccc2)CC1 | inconclusive: 22.4 µM [quencher, side channel, partial curve]
C/C(=N\Nc1nc2ccc(Cl)cc2o1)c1ccccc1 | inactive
Nc1cccc2c1C(=O)N(C(=O)/C=C/c1cccc(F)c1)C2=O | inconclusive: 31.6 µM [quencher, side channel, single point]
CC(C)OCCCn1c(=NC(=O)c2ccncc2)c(C#N)cc2c(=O)n3ccccc3nc21 | inconclusive: 3.16 µM [quencher, full curve]
O=C(Cn1c(=O)c2cccn2c2cccnc21)NCCCN1CCN(c2ccc(F)cc2)CC1 | inactive
